Drawing on the supplement of paper PMC11880418, this text covers ALDHbr for 7 molecules.

Where a name gives a salt, the structure may show the parent alone. The list shows a part of the results. The data scatter; read single values as rough.

Common to all, as to test: ALDHbr (CSC) cell proportion score relative to DMSO vehicle (ratio to DMSO); breast (SUM159) / gastric (MKN45) / pancreatic (PANC1) / colon cancer lines; ALDHbr cells have high ALDH activity and are rich in cancer stem cells (CSC); higher = more CSC (ALDHbr) cells remaining
Holding throughout (conditions): 10 µM; 72 h

Assay [1] concerns MKN45.
Assay [2] has as its system PANC1.
The test system of assay [3] is SUM159.
Assay [4] deals with T84.
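Further: High-content imaging of ALDEFLUOR-stained cells with Hoechst-labelled nuclei in 384-well plates, triplicate wells, scored as Z-score against 0.1% DMSO vehicle, negative meaning fewer ALDHbr cells.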

On to `CC(=O)N1CCN(c2ccc(OCC3COC(Cn4ccnc4)(c4ccc(Cl)cc4Cl)O3)cc2)CC1` (stereo not drawn) [Ketoconazole], for which the ALDHbr in assay [1] worked out at 0.726; in assay [2], 0.513; in assay [3], 0.854; in assay [4], 0.682.
For `CN(C)CCC(c1ccc(Cl)cc1)c1ccccn1` (stereo not drawn) [Chlorpheniramine maleate], the ALDHbr in assay [1] was 0.986; in assay [2], 0.859; in assay [3], 0.943; in assay [4], 0.795.
Taken in the same sequence, the figures for `N=C(N)N/N=C/c1c(Cl)cccc1Cl` [Guanabenz acetate] were 1.37, 1.05, 1.03 and 0.91.
Taken in the same sequence, the figures for `COC(=O)[C@H](c1ccccc1Cl)N1CCc2sccc2C1` [Clopidogrel] were 0.759, 0.991, 0.888 and 0.89.
Taken in the same sequence, the figures for `CCCC(CCC)C(=O)O` [Valproic acid] were 1.17, 1, 0.949 and 0.879.
For the molecule `Clc1ccc(CO/N=C(\Cn2ccnc2)c2ccc(Cl)cc2Cl)c(Cl)c1` [Oxiconazole Nitrate], the ALDHbr in assay [1] worked out at 0.93; in assay [2] it was 1.28; in assay [3], 0.947; in assay [4], 0.565.
Consider `Cc1ncc([N+](=O)[O-])n1CCO` [Metronidazole], for which the ALDHbr was 1.08 in assay [1], 0.811 in assay [2], 1.09 in assay [3] and 0.954 in assay [4].
